This is one part of the list. The full chains were built here from the parent and the listed change. Inactive controls read about 0.05.
B1: TEV protease; numbered along this chain (parent)
chain: MGESLFKGPRDYNPISSSICHLTNESDGHTTSLYGIGFGPFIITNKHLFRRNNGTLVVQSLHGVFKVKDTTTLQQHLVDGRDMIIIRMPKDFPPFPQKLKFREPQREERICLVTTNFQTKSMSSMVSDTSCTFPSGDGIFWKHWIQTKDGQCGSPLVSTRDGFIVGIHSASNFTNTNNYFTSVPKNFMELLTNQEAQQWVSGWRLNADSVLWGGHKVFMVKPEEPFQPVKEATQL

Variants of: B1
Test: raw area under fraction-flipped curve 0-4 h after induction (AUC4h, not background-subtracted), DNA-recorder readout of cleavage of the substrate (dimensionless); higher = more cleavage of the substrate by the protease variant
Conditions: temperature: 34 °C; time window: 0-4 h after rhamnose induction
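Also: Bxb1 expression induced with 0.2% (w/v) L-rhamnose at OD600 near 0.5, cultures sampled hourly, flipped fraction per protease–substrate barcode pair counted by paired-end Illumina sequencing.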

MGESLFKGPRDYNPISSSICHLTNESDGHTTSLYGIGFGPFIIGNKHLFRRNNGTLVVQSLHGVFKVKDTTTLQQHLVDGRDMIIIRMPKDFPPFPQKLKFREPQREERICLVTTNFQTKSMSSMVSDTSCTFPSGDGIFWKHWIQTKDGQCGSPLVSTRDGFIVGIHSASNFTNTNNYFTSVPKNFMELLTNQEAQQWVSGWRLNADSVLWGGHKVFMVKPEEPFQPVKEATQL [T44G]
area with substrate ENLYDQS: 0.0579 | area with substrate ENLYEQS: 0.0578 | area with substrate ENLYGQS: 0.069 | area with substrate ENLYHQS: 0.0584 | area with substrate ENLYIQS: 0.0686 | area with substrate ENLYKQS: 0.0348 | area with substrate ENLYMQS: 0.0601 | area with substrate ENLYNQS: 0.0562 | area with substrate ENLYPQS: 0.0599 | area with substrate ENLYQQS: 0.0665 | area with substrate ENLYRQS: 0.0373 | area with substrate ENLYSQS: 0.0585 | area with substrate ENLYVQS: 0.0815 | area with substrate ENLYWQS: 0.0678 | area with substrate ENLYYQS: 0.0505

MGESLFKGPRDYNPISSSICHLTNESDGHTTSLYGIGFGPFIITNKHLFRRNNGTLVVQSLHGVFKVKDTTTLQQHLVDGRDMIIIRMPKDFPPFPQKLKFREPQREERICLVTTNFQTKSMSSSVSDTSCTFPSGDGIFWKHWIQTKDGQCGSPLVSTRDGFIVGIHSASNFTNTNNYFTSVPKNFMELLTNQEAQQWVSGWRLNADSVLWGGHKVFMVKPEEPFQPVKEATQL [M125S]
area with substrate ENLYDQS: 0.0712 | area with substrate ENLYEQS: 0.0588 | area with substrate ENLYGQS: 0.0529 | area with substrate ENLYHQS: 0.0925 | area with substrate ENLYIQS: 0.0911 | area with substrate ENLYKQS: 0.0624 | area with substrate ENLYMQS: 0.0968 | area with substrate ENLYRQS: 0.0697 | area with substrate ENLYTQS: 0.074 | area with substrate ENLYYQS: 0.0768

MGESLFKGPRDYNPISSSICHLTNESDGHTTSLYGIGFGPFIITNKMLFRRNNGTLVVQSLHGVFKVKDTTTLQQHLVDGRDMIIIRMPKDFPPFPQKLKFREPQREERICLVTTNFQTKSMSSMVSDTSCTFPSGDGIFWKHWIQTKDGQCGSPLVSTRDGFIVGIHSASNFTNTNNYFTSVPKNFMELLTNQEAQQWVSGWRLNADSVLWGGHKVFMVKPEEPFQPVKEATQL [H47M]
area with substrate ENLYDQS: 0.0594 | area with substrate ENLYEQS: 0.0588 | area with substrate ENLYGQS: 0.0628 | area with substrate ENLYHQS: 0.0624 | area with substrate ENLYIQS: 0.0522 | area with substrate ENLYKQS: 0.0647 | area with substrate ENLYMQS: 0.0549 | area with substrate ENLYNQS: 0.0616 | area with substrate ENLYPQS: 0.0518 | area with substrate ENLYQQS: 0.0547 | area with substrate ENLYRQS: 0.0553 | area with substrate ENLYSQS: 0.047 | area with substrate ENLYTQS: 0.0606 | area with substrate ENLYWQS: 0.047 | area with substrate ENLYYQS: 0.0551

MGESLFKGPRDYNPISSSICHLTNESDGHTTSLYGIGFGPFIITNKHLFRRNNGTLVVQSLHGVFKVKDTTTLQQHLVDGRDMIIIRMPKDFPPFPQKLKKREPQREERICLVTTNFQTKSMSSMVSDTSCTFPSGDGIFWKHWIQTKDGQCGSPLVSTRDGFIVGIHSASNFTNTNNYFTSVPKNFMELLTNQEAQQWVSGWRLNADSVLWGGHKVFMVKPEEPFQPVKEATQL [F101K]
area with substrate ENLYDQS: 0.0676 | area with substrate ENLYHQS: 0.0735 | area with substrate ENLYKQS: 0.054 | area with substrate ENLYNQS: 0.0727 | area with substrate ENLYPQS: 0.06 | area with substrate ENLYSQS: 0.0556 | area with substrate ENLYTQS: 0.0496

MGESLFKGPRDYNPISSSICHLTNESDGHTTSLYGIGFGPFIITNKHLFRRNNGTLVVQSLHGVFKVKDTTTLQQHLVDGRDMIIIRMPKDEPPFPQKLKFREPQREERICLVTTNFQTKSMSSMVSDTSCTFPSGDGIFWKHWIQTKDGQCGSPLVSTRDGFIVGIHSASNFTNTNNYFTSVPKNFMELLTNQEAQQWVSGWRLNADSVLWGGHKVFMVKPEEPFQPVKEATQL [F92E]
area with substrate ENLYDQS: 0.0619 | area with substrate ENLYEQS: 0.0698 | area with substrate ENLYGQS: 0.0609 | area with substrate ENLYHQS: 0.056 | area with substrate ENLYKQS: 0.0601 | area with substrate ENLYLQS: 0.0651 | area with substrate ENLYMQS: 0.0829 | area with substrate ENLYNQS: 0.0696 | area with substrate ENLYPQS: 0.0799 | area with substrate ENLYQQS: 0.048 | area with substrate ENLYRQS: 0.047 | area with substrate ENLYSQS: 0.0653 | area with substrate ENLYTQS: 0.0665 | area with substrate ENLYVQS: 0.0954 | area with substrate ENLYWQS: 0.0716 | area with substrate ENLYYQS: 0.0718

MGESLFKGPRDYNPISSSICHLTNESDGHTTSLYGIGFGPFIITNKHLFRRNNGTLVVQSLHGVFKVKDTTTLQQHLVDGRDMIIIRMPKDFPPFPQKLKFRVPQREERICLVTTNFQTKSMSSMVSDTSCTFPSGDGIFWKHWIQTKDGQCGSPLVSTRDGFIVGIHSASNFTNTNNYFTSVPKNFMELLTNQEAQQWVSGWRLNADSVLWGGHKVFMVKPEEPFQPVKEATQL [E103V]
area with substrate ENLYDQS: 0.0518 | area with substrate ENLYEQS: 0.0628 | area with substrate ENLYGQS: 0.058 | area with substrate ENLYHQS: 0.0748 | area with substrate ENLYIQS: 0.104 | area with substrate ENLYMQS: 0.09 | area with substrate ENLYNQS: 0.0741 | area with substrate ENLYQQS: 0.0614 | area with substrate ENLYRQS: 0.0759 | area with substrate ENLYSQS: 0.0821 | area with substrate ENLYTQS: 0.0721 | area with substrate ENLYVQS: 0.112 | area with substrate ENLYWQS: 0.0761

MGESLFKGPRDYNPISSSICHLTNESDGHTTSLYGIGFGPFIITNKHLFRRNNGTLVVQSLHGVFKVKDTTTLQQHLVDGRDMIIIRMPKDFPPFPQKLKFREPQREERICLVTTNFQTKSMSSMVMDTSCTFPSGDGIFWKHWIQTKDGQCGSPLVSTRDGFIVGIHSASNFTNTNNYFTSVPKNFMELLTNQEAQQWVSGWRLNADSVLWGGHKVFMVKPEEPFQPVKEATQL [S127M]
area with substrate ENLYDQS: 0.0671 | area with substrate ENLYEQS: 0.0837 | area with substrate ENLYGQS: 0.0693 | area with substrate ENLYHQS: 0.073 | area with substrate ENLYKQS: 0.0502 | area with substrate ENLYMQS: 0.0867 | area with substrate ENLYNQS: 0.0695 | area with substrate ENLYPQS: 0.0769 | area with substrate ENLYQQS: 0.0478 | area with substrate ENLYRQS: 0.0492 | area with substrate ENLYSQS: 0.0614 | area with substrate ENLYVQS: 0.142

MGESLFKGPRDYNPISSSICHLTNESDGHTTSLYGIGFGPFIITNKHLFRRNNGTLVVQSLHGVFKVKDTTTLQQHLVDGKDMIIIRMPKDFPPFPQKLKFREPQREERICLVTTNFQTKSMSSMVSDTSCTFPSGDGIFWKHWIQTKDGQCGSPLVSTRDGFIVGIHSASNFTNTNNYFTSVPKNFMELLTNQEAQQWVSGWRLNADSVLWGGHKVFMVKPEEPFQPVKEATQL [R81K]
area with substrate ENLYDQS: 0.0578 | area with substrate ENLYEQS: 0.0592 | area with substrate ENLYGQS: 0.0425 | area with substrate ENLYHQS: 0.0643 | area with substrate ENLYKQS: 0.0577 | area with substrate ENLYMQS: 0.0459 | area with substrate ENLYPQS: 0.0589 | area with substrate ENLYQQS: 0.077 | area with substrate ENLYRQS: 0.07 | area with substrate ENLYWQS: 0.0736

MGESLFKGPRDYNPISSSICHLTNESDGHTTSLYGIGFGPFIITNKHLFRRNNGTLVVQSLHGVFKVVDTTTLQQHLVDGRDMIIIRMPKDFPPFPQKLKFREPQREERICLVTTNFQTKSMSSMVSDTSCTFPSGDGIFWKHWIQTKDGQCGSPLVSTRDGFIVGIHSASNFTNTNNYFTSVPKNFMELLTNQEAQQWVSGWRLNADSVLWGGHKVFMVKPEEPFQPVKEATQL [K68V]
area with substrate ENLYDQS: 0.0494 | area with substrate ENLYEQS: 0.0652 | area with substrate ENLYGQS: 0.0519 | area with substrate ENLYHQS: 0.0702 | area with substrate ENLYIQS: 0.128 | area with substrate ENLYKQS: 0.0791 | area with substrate ENLYNQS: 0.07 | area with substrate ENLYPQS: 0.07 | area with substrate ENLYQQS: 0.0643 | area with substrate ENLYRQS: 0.0441 | area with substrate ENLYTQS: 0.0834 | area with substrate ENLYVQS: 0.102 | area with substrate ENLYWQS: 0.0754 | area with substrate ENLYYQS: 0.0644
